Laboratory results as given in paper PMC6018503.
Results are given in words; binding and its absence hold for the method and conditions named. For some assays here: In cells and extracts the contact can be indirect. Some results given as binding are weak or reduced against the parent protein; the word gives no strength. Blank lines part the entries; values can stand above or below the molecule they belong to.

By UniProt entry, the sequences of proteins in these tests, tags left out. Where a name states a change or a piece, a line headed by the entry shows the natural chain unless it says otherwise.
UniProt Q9FXM3: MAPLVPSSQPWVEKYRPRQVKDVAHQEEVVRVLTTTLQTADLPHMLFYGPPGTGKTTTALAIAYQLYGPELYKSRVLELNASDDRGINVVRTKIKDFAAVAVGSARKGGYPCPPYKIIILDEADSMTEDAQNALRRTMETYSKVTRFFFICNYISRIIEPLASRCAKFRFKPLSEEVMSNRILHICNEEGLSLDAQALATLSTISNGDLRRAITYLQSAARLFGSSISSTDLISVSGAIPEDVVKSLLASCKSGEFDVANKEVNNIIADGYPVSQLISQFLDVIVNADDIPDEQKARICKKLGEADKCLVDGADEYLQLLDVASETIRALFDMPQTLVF

Tests used:
[1] = target: T1, OsRFC3 (rice (Oryza sativa)) (UniProt Q6YZ54); experiment: split reporter; BiFC; YFP^N (aa 1-155) and YFP^C (aa 156-239) fusions (pCAMBIA-SPYNE, pCAMBIA-SPYCE) co-expressed in tobacco (Nicotiana benthamiana) leaf epidermal cells through Agrobacterium GV3101; confocal microscopy of YFP; only the two named fusions
T1 sequence: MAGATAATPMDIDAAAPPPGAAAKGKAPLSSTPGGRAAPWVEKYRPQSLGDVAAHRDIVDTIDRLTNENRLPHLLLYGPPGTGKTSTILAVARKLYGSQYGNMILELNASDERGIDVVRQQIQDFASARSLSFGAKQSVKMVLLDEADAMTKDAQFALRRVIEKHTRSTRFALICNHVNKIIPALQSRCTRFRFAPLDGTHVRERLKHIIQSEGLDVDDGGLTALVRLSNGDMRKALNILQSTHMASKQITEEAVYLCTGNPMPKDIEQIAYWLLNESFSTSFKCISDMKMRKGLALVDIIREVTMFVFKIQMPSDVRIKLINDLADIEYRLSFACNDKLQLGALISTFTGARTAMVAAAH

[2] = target: T2, OsRFC1 (rice (Oryza sativa)) (UniProt Q2R2B4); experiment: as above
T2 sequence: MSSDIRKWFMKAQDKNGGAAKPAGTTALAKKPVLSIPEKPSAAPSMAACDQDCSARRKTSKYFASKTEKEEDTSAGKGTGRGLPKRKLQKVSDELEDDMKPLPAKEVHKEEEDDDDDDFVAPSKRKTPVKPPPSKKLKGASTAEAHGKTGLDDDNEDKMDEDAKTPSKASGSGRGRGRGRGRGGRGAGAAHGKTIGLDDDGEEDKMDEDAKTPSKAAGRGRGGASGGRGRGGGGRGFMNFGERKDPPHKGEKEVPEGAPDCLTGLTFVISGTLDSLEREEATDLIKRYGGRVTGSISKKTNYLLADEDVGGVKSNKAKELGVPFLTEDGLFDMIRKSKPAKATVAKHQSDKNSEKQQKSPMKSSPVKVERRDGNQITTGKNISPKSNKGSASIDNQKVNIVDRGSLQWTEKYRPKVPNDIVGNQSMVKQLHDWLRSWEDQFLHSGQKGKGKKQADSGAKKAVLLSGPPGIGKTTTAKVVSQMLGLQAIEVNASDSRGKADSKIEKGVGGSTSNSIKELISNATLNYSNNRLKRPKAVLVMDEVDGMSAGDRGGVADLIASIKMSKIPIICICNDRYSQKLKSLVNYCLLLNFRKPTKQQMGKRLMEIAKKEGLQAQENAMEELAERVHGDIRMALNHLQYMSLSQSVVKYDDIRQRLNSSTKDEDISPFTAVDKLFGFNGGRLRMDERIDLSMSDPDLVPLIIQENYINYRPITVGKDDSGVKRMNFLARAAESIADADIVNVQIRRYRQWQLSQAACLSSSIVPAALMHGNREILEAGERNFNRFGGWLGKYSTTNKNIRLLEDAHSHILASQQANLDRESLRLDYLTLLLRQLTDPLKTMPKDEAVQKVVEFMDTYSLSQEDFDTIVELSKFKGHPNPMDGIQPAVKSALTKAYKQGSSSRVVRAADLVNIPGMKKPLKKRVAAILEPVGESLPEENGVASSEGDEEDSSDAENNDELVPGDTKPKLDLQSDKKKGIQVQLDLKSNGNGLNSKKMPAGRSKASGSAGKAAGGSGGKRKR

[3] = target: T3, OsRFC5 (rice (Oryza sativa)) (UniProt Q852K3); experiment: as above
T3 sequence: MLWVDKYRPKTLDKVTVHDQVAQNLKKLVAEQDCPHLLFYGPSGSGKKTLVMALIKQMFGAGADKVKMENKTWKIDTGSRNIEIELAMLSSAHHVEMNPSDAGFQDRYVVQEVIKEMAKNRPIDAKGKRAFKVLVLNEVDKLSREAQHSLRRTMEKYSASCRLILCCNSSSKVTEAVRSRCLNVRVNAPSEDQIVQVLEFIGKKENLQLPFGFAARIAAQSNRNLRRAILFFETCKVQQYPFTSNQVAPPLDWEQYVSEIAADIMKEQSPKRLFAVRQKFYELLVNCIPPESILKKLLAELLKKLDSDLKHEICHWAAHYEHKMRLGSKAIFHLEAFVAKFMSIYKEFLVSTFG

[4] = target: T4, AtRFC2 (Arabidopsis thaliana) (UniProt Q9CAM7); experiment: as above
T4 sequence: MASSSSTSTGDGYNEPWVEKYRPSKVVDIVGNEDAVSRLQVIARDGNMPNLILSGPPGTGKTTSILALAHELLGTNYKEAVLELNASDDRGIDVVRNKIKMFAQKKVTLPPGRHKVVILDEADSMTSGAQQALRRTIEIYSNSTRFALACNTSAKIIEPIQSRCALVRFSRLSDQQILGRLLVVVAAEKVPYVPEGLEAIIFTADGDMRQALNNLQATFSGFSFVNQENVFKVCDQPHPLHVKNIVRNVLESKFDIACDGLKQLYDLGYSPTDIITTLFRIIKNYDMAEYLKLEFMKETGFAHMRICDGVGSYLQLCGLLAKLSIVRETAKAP

[5] = target: T5, AtRFC5 (Arabidopsis thaliana) (UniProt Q8VXX4); experiment: as above
T5 sequence: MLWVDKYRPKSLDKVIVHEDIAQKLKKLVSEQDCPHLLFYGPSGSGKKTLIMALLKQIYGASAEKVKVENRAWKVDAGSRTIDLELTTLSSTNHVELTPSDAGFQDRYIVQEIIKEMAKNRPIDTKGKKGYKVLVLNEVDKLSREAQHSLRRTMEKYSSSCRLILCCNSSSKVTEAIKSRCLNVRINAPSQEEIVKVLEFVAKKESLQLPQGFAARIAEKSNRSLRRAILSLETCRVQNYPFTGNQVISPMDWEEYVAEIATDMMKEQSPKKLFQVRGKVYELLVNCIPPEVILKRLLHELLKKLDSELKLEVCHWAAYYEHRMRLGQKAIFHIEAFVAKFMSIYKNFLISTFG

[6] = target: T1, OsRFC3 (rice (Oryza sativa)); experiment: two-hybrid; yeast two-hybrid; full-length ORFs in pGADT7 (AD) and pGBKT7 (BD); co-transformed strains spotted on SD-L-T and SD-L-T-H-A plates; empty AD or BD plasmids as negative controls
[7] = target: T3, OsRFC5 (rice (Oryza sativa)); experiment: as above
[8] = target: T6, OsRFC4 (rice (Oryza sativa)) (UniProt Q7XRX1); experiment: as above
T6 sequence: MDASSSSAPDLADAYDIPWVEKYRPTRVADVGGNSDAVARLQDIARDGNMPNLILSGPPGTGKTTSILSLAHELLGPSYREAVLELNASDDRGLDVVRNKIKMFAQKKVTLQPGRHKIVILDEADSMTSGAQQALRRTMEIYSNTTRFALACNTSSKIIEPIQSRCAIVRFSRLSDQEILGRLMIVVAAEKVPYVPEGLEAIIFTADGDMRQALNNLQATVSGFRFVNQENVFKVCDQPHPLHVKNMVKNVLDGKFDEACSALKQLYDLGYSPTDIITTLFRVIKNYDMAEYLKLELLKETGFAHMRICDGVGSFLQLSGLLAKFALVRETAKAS

[9] = target: AtRFC4 (Arabidopsis thaliana) (UniProt Q93ZX1); experiment: split reporter; BiFC in tobacco leaf epidermal cells with truncated AtRFC proteins, pairs that include AtRFC1 or a truncated AtRFC1; whether the other small subunits were co-expressed is not said
[10] = target: T4, AtRFC2 (Arabidopsis thaliana); experiment: as above
[11] = target: T5, AtRFC5 (Arabidopsis thaliana); experiment: as above
[12] = target: T4, AtRFC2 (Arabidopsis thaliana); experiment: split reporter; BiFC; YFP^N (aa 1-155) and YFP^C (aa 156-239) fusions (pCAMBIA-SPYNE, pCAMBIA-SPYCE) co-expressed in tobacco (Nicotiana benthamiana) leaf epidermal cells through Agrobacterium GV3101; confocal microscopy of YFP; only the two named fusions; remark: listed apart in the source
[13] = target: T5, AtRFC5 (Arabidopsis thaliana); experiment: as above; remark: listed apart in the source

Molecule: OsRFC2 (from UniProt Q9FXM3 1-339)
binding [4]: binds
binding [5]: binds
binding [2]: binds
binding [6]: binds
binding [7]: binds
binding [8]: no binding

Molecule: OsRFC2 Δ300–339 (from UniProt Q9FXM3 1-299) (domain or fragment)
binding [1]: binds
binding [2]: no binding
binding [3]: no binding

B1: AtRFC1 Δ1-457 (domain or fragment, UniProt Q9C587 458-956)
chain: MAANFDRSKHPKTVLIMDEVDGMSAGDRGGVADLIASIKISKIPIICICNDRYSQKLKSLVNYCLPLNYRKPTKQQMAKRLMHIAKAEGLEINEIALEELAERVNGDIRLAVNQLQYMSLSMSVIKYDDIRQRLLSSAKDEDISPFTAVDKLFGYNGGKLRMDERIDLSMSDPDLVPLLIQENYLNYRPSGKDEAKRMDLLARAAESIADGDIINVQIRRYRQWQLSQSCCVASSILPASLLHGSREVLEQGERNFNRFGGWLGKNSTAGKNRRLMEDLHVHVLASRESSAGRETLRVDYLPLLLSRLTSPLQTLPKDEAVSEVVDFMNSYSISQEDFDTILELGKFKGRENPMEGVPPPVKAALTKKYNEMNKTRMVRVADMVQLPGVKKAPKKRIAAMLEPTVDSLRDEDGEPLADNEEGNGSDAEEDSEEATDGEKLESNLKNLNARGIQVELDLKGAGSSGSRKAAGKGRGRGKAADTSAEKKATGRGSGAKRKR
binding [9]: no binding
binding [10]: no binding
binding [11]: no binding

B2: AtRFC4 Δ1–213 (domain or fragment, UniProt Q93ZX1 214-339)
chain: ITYLQSATRLFGSTITSTDLLNVSGVVPLEVVNKLFTACKSGDFDIANKEVDNIVAEGYPASQIINQLFDIVAEADSDITDMQKAKICKCLAETDKRLVDGADEYLQLLDVASSTICALSEMAQDF
binding [12]: binds
binding [13]: binds

Further lines, results first:

binding [1]: binds
binding [2]: binds
binding [3]: no binding
Molecule: OsRFC2 Δ320–339 (from UniProt Q9FXM3 1-319) (domain or fragment)

binding [1]: no binding
binding [2]: no binding
binding [3]: no binding
Molecule: OsRFC2 Δ240–339 (from UniProt Q9FXM3 1-239) (domain or fragment)
